{"source": "PubChem BioAssay AID624417", "about": "(National Center for Advancing Translational Sciences (NCATS), 2012)", "note": "Where “and” joins values, the source holds several entries; their conditions need not be identical. Identical values can stand only once. Screen size: about 410,000 compounds; about 6,400 (1.6%) were called active. Inconclusive results, whose numbers are uncertain, are shown with a selection of clear calls. Calls follow the shape of the dose curve; as a rule, active = well fitted inhibition curve with a large enough effect; inconclusive = small, poorly fitted or top-dose-only effect; inactive = no such curve, though single readings can be large or run the other way. Where the call is inconclusive, the potency comes from a doubtful curve fit. % is scaled to controls: 0 for no effect and ±100 for the full control effect; potency is read from the fitted curve at half-maximal effect; tags tell the direction and shape of the fitted curve."}
{"target": "Glucagon-like peptide 1 receptor (Homo sapiens) (UniProt P43220)", "sequence (P43220 whole entry, looked up)": "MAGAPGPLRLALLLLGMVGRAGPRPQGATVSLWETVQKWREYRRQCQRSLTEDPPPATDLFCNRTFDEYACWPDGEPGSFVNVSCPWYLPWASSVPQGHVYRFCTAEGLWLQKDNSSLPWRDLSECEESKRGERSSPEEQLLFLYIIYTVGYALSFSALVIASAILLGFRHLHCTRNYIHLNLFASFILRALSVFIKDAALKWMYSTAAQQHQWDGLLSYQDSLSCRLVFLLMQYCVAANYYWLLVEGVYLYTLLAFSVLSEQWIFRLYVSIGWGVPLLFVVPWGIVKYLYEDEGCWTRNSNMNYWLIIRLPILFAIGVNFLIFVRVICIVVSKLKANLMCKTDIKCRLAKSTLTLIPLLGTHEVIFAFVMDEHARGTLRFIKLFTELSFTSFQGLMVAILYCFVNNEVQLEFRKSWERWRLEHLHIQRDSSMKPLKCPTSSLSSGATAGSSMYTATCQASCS", "experiment": "qHTS of GLP-1 Receptor Inverse Agonists (Inhibition Mode); also: nearly all actives have a fitted effect of over 55% in size", "conditions": "HEK293 GLP-1R CRE-luciferase, luminescence, 24 h, GLP-1R form is constitutively active; activity change, negative = inhibition: at 38.3 µM (top of the series) unless noted", "method_in_brief": "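Assay principle: reduced luminescence from a cAMP-responsive reporter in HEK293 cells co-expressing a constitutively active GLP-1R. Conditions: 24 hr compound incubation, 37 deg C, 5% CO2.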"}
{"smiles": "O=C(/C=C/c1ccc(Cl)cc1Cl)Nc1ccncc1", "activity change, negative = inhibition": "inactive: 5.79%"}
{"smiles": "COc1ccccc1N1CCN(C(=O)c2cc(-c3cccs3)on2)CC1", "Potency": "inconclusive: 11.2 µM [inhibitor, partial curve, poor fit]"}
{"smiles": "COc1ccc(-c2oc3ncn(Cc4ccco4)c(=N)c3c2-c2ccc(OC)cc2)cc1", "Potency": "inconclusive: 12.6 µM [inhibitor, single point]"}
{"smiles": "CC(C)(C)c1cc(P(=O)(c2ccccc2)c2ccccc2)ccc1O", "Potency": "inconclusive: 31.6 µM [inhibitor, partial curve, poor fit]"}
{"smiles": "O=S(=O)(c1ccc(Br)cc1)N1CCCC1c1nc2ccccc2s1", "note": "(stereo unspecified)", "Potency": "inconclusive: 11.2 µM [inhibitor, partial curve, poor fit]"}
{"smiles": "CCc1cccc(CC)c1NC(=S)NCc1ccc2[nH]c(C)cc2c1", "Potency": "inconclusive: 11.2 µM [inhibitor, single point]"}
{"smiles": "COc1cccc(NC(=O)Cn2c(=O)n(-c3cccc(OC)c3)c(=O)c3sc4ccccc4c32)c1", "activity change, negative = inhibition": "inactive: 9.12%"}
{"smiles": "Cc1ccc(Cl)cc1N1CCN(C2(c3ccccc3)C(=O)c3ccccc3C2=O)CC1", "Potency": "inconclusive: 14.1 µM [inhibitor, single point]"}
{"smiles": "CC(O)CNc1nc2c(c(=O)n(Cc3ccc(Cl)c(Cl)c3)c(=O)n2C)n1C", "note": "(stereo unspecified)", "Potency": "inconclusive: 31.6 µM [inhibitor, partial curve, poor fit]"}
{"smiles": "Cc1onc(-c2ccccc2)c1CNS(=O)(=O)c1cccc(Br)c1", "Potency": "inconclusive: 10 µM [inhibitor, single point]"}
{"smiles": "CC(C)CC1Nc2ncnc(N3CCN(c4ccccn4)CC3)c2N(Cc2ccc(Br)cc2)C1=O", "note": "(stereo unspecified)", "Potency": "inconclusive: 28.2 µM [inhibitor, single point] and inconclusive: 14.1 µM [inhibitor, partial curve, poor fit]"}
{"smiles": "CCCCCC(=O)N1C[C@@H](n2cc(-c3ccc(F)cc3)nn2)[C@H](O)C[C@@H]1c1ccc(C)cc1", "Potency": "inconclusive: 7.94 µM [inhibitor, partial curve, poor fit]"}
{"smiles": "CC(=O)Nc1ccc(N=Nc2ccccc2)cc1", "Potency": "inconclusive: 12.6 µM [inhibitor, single point]"}
{"smiles": "Cc1ccc2[nH]c(=O)c(CN(Cc3cccs3)C(=S)NCc3ccco3)cc2c1", "Potency": "inconclusive: 31.6 µM [inhibitor, single point]"}
{"smiles": "CCCn1c(=O)c2ccccc2n2c(Sc3nnnn3-c3ccccc3)nnc12", "Potency": "inconclusive: 11.2 µM [inhibitor, single point]"}
{"smiles": "CC1CCN(c2ccc(C(=O)N3CCOCC3)cc2[N+](=O)[O-])CC1", "activity change, negative = inhibition": "inactive: 1.83%"}
